Measurements as given in publication PMC5515408.
The list shows a part of the results. At the low end of the ranking the order means little.

target: MAX:MAX (p21) (UniProt P61244-2); experiment: protein-binding microarray (anti-MAX antibody); conditions: PBM: 15 mM Tris-HCl pH 7.5, 100 mM KCl, 0.075% NP40, 7.5 mM beta-mercaptoethanol, 375 ng/ul BSA, 8 ng/ul poly(dA-dT):(dA-dT), 550 ng complex, 60 min, room …; high values mean tight binding; double strand, one strand shown; sequences stand for … in CCGGC…TTAATAGCTAAGATTACTATATCGACG

Sequence	binding signal (log2 normalized fluorescence)
TGAGGGGGGGTA	2.32
GGACACGTGTGA	3.15
TGACGCAGCGTA	-0.13
TGACGATTTGTA	-0.952
TGAATGATAGTA	-0.224
TGACACCAAGTA	0.085
TGATTCCGCGTA	-0.773
TGATCCATAGTA	-0.834
TGAAGGCGGGTA	-0.384
TGATTCTGAGTA	-1.02
TTCTACGTGGTA	1.32
TGATATGCCGTA	-0.595
AGTCACATGGTA	3.15
TGAAGCCCTGTA	-0.819
TGAATCGTCGTA	-1.17
TGAGCATCCGTA	-0.573
TGACACGGATTA	0.43
TGACGTCTGGTA	-0.298
ACTCACGTGGTA	3.13
TGATGAGATGTA	-0.389
TGACACGTAATA	0.894
TGAAGGTCAGTA	-0.245
TGAAGCGACGTA	-0.532
TGAGGGTTCGTA	-0.732
TGAAACACCGTA	-0.0366

Sequence	binding signal (log2 normalized fluorescence)
TGAGAAGCCGTA	-0.996
TGACGAAGGGTA	-0.694
TGAACTGTGGTA	-0.167
TGACGGGGGGTA	2.03
TGACACGTGAGT	3.25
TGACCATGTGTA	3.23
TGAACTGCTGTA	-0.0834
TGAACGACAGTA	-0.362
TGATGGGGTGTA	0.609
TGATACCGGGTA	-0.949
TGAGCCTAAGTA	-1.2
AGACACGTGGTG	3.28
TGATCCGTAGTA	-1.14
TGAAGTAAGGTA	-0.27
TGATTCCAAGTA	-0.654
TAAAACGTGGTA	3.1
TGACAGATCGTA	-0.703
TGACGGTAAGTA	-0.542
TGAGCCGTAGTA	-1.3
TGATGGATTGTA	-0.242
TGAGAGTGGGTA	-0.434
TGAGGCCGCGTA	-0.593
TGATACCATGTA	0.272
TGACACGTCCCA	1.31
TGATCCACGGTA	0.146

Sequence	binding signal (log2 normalized fluorescence)
TGAAGCGTCGTA	-0.454
TCCCACGTAGTA	1.6
TGACCCATCGTA	-0.316
TGACGTACTGTA	-0.303
TGACAACCAGTA	0.135
TGACAGAGAGTA	-0.213
TGATGCTGTGTA	-0.14
TGAACTATGGTA	-0.682
TGAAGCCCGGTA	-0.644
TGACACGGCCTA	0.786
TGAAAGATAGTA	-0.905
TGACGAAGCGTA	-0.906
TGACACGTGGCC	3.37
TGAAGGCTAGTA	-0.822
TGACGGTTTGTA	-0.912
TGAGAGGCAGTA	-0.654
TGAAGTCGAGTA	-0.979
TGACCGGTGCTA	0.574
TGAGCATCTGTA	0.186
TGATTGCCAGTA	-0.592
TGACAGTGCGTA	0.131
TGACCTCAAGTA	0.186
TGAATCCGAGTA	-1.09
TGATAGTGAGTA	-0.461
TGACACCTGAGA	1.4

Sequence	binding signal (log2 normalized fluorescence)
TGAGACCTAGTA	-0.775
TGACGACGCGTA	-0.134
TGACTAACGGTA	-0.199
TGATTCGCCGTA	-0.988
TGAATGAGTGTA	0.304
TGACTCTCCGTA	-0.641
TGAAACTCTGTA	-0.918
TGAAGGTAGGTA	-0.417
TGAGAACTAGTA	-1.04
TGACCGACGGTA	-0.371
TGACCCTTGATA	-0.546
TGATTCTACGTA	-1.14
TGAAGGACCGTA	-0.677
TGAAAATAGGTA	-1.24
TGAAACGTAGTA	-0.462
TGACACGCGGGA	3.09
TGAGCCCACGTA	0.253
TGAATCCTTGTA	-0.96
TGAGAGGATGTA	-0.431
TGATGTTTAGTA	0.108
TGACACGTGACA	3.44
TGACACGTGACC	3.18
GGACACGTGCTA	3.15
TGCCACGTAGTG	1.81
TGAGTGACCGTA	0.109

Sequence	binding signal (log2 normalized fluorescence)
TGACCATGGGTA	1.67
TGATAACCGGTA	-0.891
TGACATAGTGTA	-0.152
TCTCACGTCGTA	1.36
TGAATGAGAGTA	-0.48
TGAGACAAAGTA	-0.9
TGATGTTGAGTA	-0.163
TGACGAGGAGTA	-0.532
TGACGGCGAGTA	-0.0302
TGGCGCATGGTA	3.17
TGACATGGGCTA	1.49
TGATACGCTGTA	-0.487
TGAATTGGAGTA	-1.09
TGATCGACCGTA	-0.901
TGATCACCGGTA	0.372
TAAGATACCACT	-0.253
TGATGATCAGTA	0.24
TGACCGTAAGTA	-0.383
TGATCTGGGGTA	-0.652
TGATTGCAAGTA	-0.361
TGACAGAAGGTA	-0.167
TGACTAATAGTA	-1.09
TGACGGGCAGTA	-0.309
ACCCACGTGGTA	3.35
TGACGGTCCGTA	-0.69

Sequence	binding signal (log2 normalized fluorescence)
TGATGGGATGTA	0.0994
TGATAAGGCGTA	-0.314
TGAACAGCGGTA	-0.0678
TGAATCAGGGTA	-0.184
TGACATCCGGTA	0.0106
TGAGATACCGTA	-0.879
TGAGCCCGCGTA	-0.528
TGAGTAGAAGTA	-1.19
TGAGGCCTCGTA	-0.758
GGACACGTCGTA	2.25
AGACACGTGTTA	3.42
TGAAAAGTAGTA	-1.06
TGAAATGCTGTA	0.563
TGATCGGTGGTA	-0.666
TGAATAGTTGTA	-1.24
TGAACTGAAGTA	-0.661
TGAGGATACGTA	-0.712
TGCCACGTGCTT	3.14
TGACTCGTAGTA	-0.484
TGAGATTTAGTA	-1.48
TGAACCTAAGTA	-0.549
TGAGAGGAAGTA	-0.851
TGCAACGTCGTT	0.309
TGACCTCGGGTA	0.0954
TGATAGGACGTA	-1.01

Sequence	binding signal (log2 normalized fluorescence)
TGAGTGTACGTA	0.137
TGAATGTCAGTA	0.32
TGACTTTAAGTA	-0.85
CGACGCGTGGTA	3.33
TGAAGTGTGGTA	1.17
TGAGTGAAAGTA	-0.698
TGACCTGACGTA	-0.0753
TAGCACGTGTTT	3.52
TTGCATATTTAC	0.0341
TGAGGATGAGTA	-0.627
TGGTACGTGGTC	1.03
TGAAACGGCGTA	-0.534
TGATTTATGGTA	-0.868
TGACATTTAGTA	-0.344
TGAGGCGTGGTA	2.46
TGACATTGGGTT	-0.0321
TGAAATCTGGTA	-0.912
TGATTTATCGTA	-1.26
TGAGCCAGCGTA	-0.837
TGATGGACAGTA	-0.228
TACAACGTGGTA	3.2
CGACACGTGCTA	3.18
TGAGTGTGAGTA	0.413
TGACAGTATGTA	0.262
GGACGCGTGGTA	3.14

Sequence	binding signal (log2 normalized fluorescence)
TGACGGCCCGTA	-0.704
TGACAATGAGTA	0.267
TACGAATATGGT	-0.457
TGAACTTGGGTA	-0.557
TGACGCAGTGTA	-0.153
CCCAAACTTCGA	-0.484
TGACCAAGTGTA	-0.073
TGATGATGAGTA	-0.35
TGATCACCTGTA	1.31
TGACTAGTGTTA	-0.258
AGACACGTCGTA	2.39
TGAAGTCTTGTA	-1.01
TCACACGGGTTA	2.8
TGACAGTTGGTA	-0.32
TGACACGTAGAA	1.04
TGAGTTCGGGTA	-1.13
TTTTACGTGGTA	0.616
TGAAATCCAGTA	-0.802
TGATGACCAGTA	-0.0893
TGAGTTTTAGTA	-1.19
TGAATAGGGGTA	-0.451
TGAGCGAACGTA	-0.765
TGATCGACGGTA	-0.856
TGACATGCCGTA	2.53
TGAAAGCTCGTA	-1.17

Sequence	binding signal (log2 normalized fluorescence)
TGAGTCCATGTA	-0.0823
TGACAAGACGTA	-0.107
TGATTAACCGTA	-0.986
TGAAACTGAGTA	-0.817
TGAAGGTATGTA	-0.0847
TGACCAAGAGTA	-0.637
TGTCCCGTGGTA	2.5
TGAGCACCGGTA	0.427
TATGATTACGTC	-0.717
TGAGGCCAGGTA	-0.511
TGACCCGATGTA	0.302
TGAATGGCTGTA	0.472
TGATCGCTGGTA	-0.679
TGAAGAATCGTA	-0.712
TGAGCTTTCGTA	-1.05
TGAAAAGGGGTA	-0.143
TTTACATATAAT	-0.608
AGACACGAGGTT	3.03
TGGCAAGGGGTA	0.278
TGATTCCGGGTA	-1.43
TGACGAATTGTA	-0.8
TGAAGGTTTGTA	-0.729
TGATTGCATGTA	1.25
TGACGCCCAGTA	-0.414
TGAATACTTGTA	-0.939

Sequence	binding signal (log2 normalized fluorescence)
TGAACATTTGTA	0.0635
TGAGGTAACGTA	-0.404
TGAACGCGTGTA	3.14
TTCAACGTGGTA	3.17
TGATGACGGGTA	-0.0565
TGACCTAAGGTA	-0.347
TGATCGTGAGTA	0.179
TGAGGCGAAGTA	-0.977
TGATACTAGGTA	-0.819
TGATATCTTGTA	-1.14
TGATTCATAGTA	-0.868
TGATCTATGGTA	-0.981
TGAGGTATAGTA	-0.844
TGAGTGAGTGTA	-0.184
TTCGATCCTGCA	-0.567
TGAATTGACGTA	-0.745
TGAGTGCTCGTA	0.0237
TGACAGGCTGTA	0.825
TGAAACGAGGCA	1.27
TGATCCACCGTA	-0.291
TGAACTTGCGTA	-0.171
TGATATTGAGTA	-0.926
TGAGTGCATGTA	1.12
TGATACGGGGAA	-0.538
TGAATGACAGTA	-0.0755

Sequence	binding signal (log2 normalized fluorescence)
TGATGATTCGTA	-0.582
TGACGTCCCGTA	-0.649
TGAGCGGAAGTA	-0.87
GGTCACGTGGTA	3.37
TGAGCGCGGGTA	0.0344
TGAGCACATGTA	2.89
TGACGTCGCGTA	-0.223
TGAACAGCAGTA	-0.0069
TGATGGTATGTA	0.377
TGACCGTGTGTA	1.49
TGAACGTATGTA	0.41
TGACCCATAGTA	-0.477
TGAGTTCTAGTA	-0.874
TGATATTTTGTA	-1.57
TGACAGCTCGTA	0.00848
TGAGGGAAAGTA	-0.795
TGAAAGGGCGTA	-0.776
TGACGAACGGTA	-0.705
TGATCCGGAGTA	-0.874
TGATTCTGTGTA	-0.772
TGACGGAAAGTA	-0.781
TGACATGCGGCA	3.21
TGACGGCACGTA	0.404
TGATTAGGAGTA	-1.2
TGAGATCGCGTA	-0.906
